Test results taken from paper PMC12095048 (Oncogene, 2025).

What was measured:
[1] = target: His-HIF-1α (WT), full length (UniProt Q16665 1-826); assay: pull-down
[2] = target: His-CHK2 (WT), full length (UniProt O96017); assay: pull-down

B1: GST-CHK2 ([…]) (domain or fragment)
chain: not shown
Does B1 bind [1]?
Result: binds

B2: GST-HIF-1α ([…]) (domain or fragment)
chain: not shown
Does B2 bind [2]?
Result: binds
